Converted amounts (≈) assume the structure as drawn. Read-outs that look alike come from different tables or passages of the source.
How the values were obtained:
[1] = Serum and tissue levels after TCO-Dox or Dox IV in gel-injected Balb/C mice; type: in vivo; conditions: 5 minutes post-infusion, tetrazine-modified gel injected locally
Description: FIGS. 18A and 18B is a set of graphs showing that Shasqi Tx (Tetrazine-modified gel injected locally; followed by TCO-doxorubicin pro-drug injected intravenously) reduces systemic exposure to cytotoxic chemotherapy. Mice injected with tetrazine-modified gel are given TCO-Dox or Doxorubicin intravenously. Serum and tissues are harvested 5 min post-injection to reflect Cmax analyzed by LC-MS/MS. […] Shasqi Tx, n=1; Dox, error bar represents SD of n=2. […] Mean±SEM of n=2.
Balb/C mice injected with tetrazine-modified gel were given TCO-Dox or Dox IV, and serum and organs were harvested 5 minutes post-infusion and analyzed.

[2] = tested on: luminescent methicillin-sensitive S. aureus (MSSA)
[3] = tested on: luminescent methicillin resistant Staphylococcus aureus (MRSA)
[4] = tested on: local spontaneous adenocarcinoma; type: in vivo; conditions: canine
Description: […]. A tumor-bearing dog was given multiple treatments of Doxorubicin and Shasqi Tx (gel and doxorubicin pro-drug). […] Longest tumor diameter determined by CT scans.
The safety profile for tetrazine-modified gel injected locally, followed by TCO-doxorubicin pro-drug injected intravenously translates across species, including large animals.

[5] = within 24 hours, Cy5-modified alginate TAG, 69 μmole/kg IV, mice

With COc1cccc2c1C(=O)c1c(O)c3c(c(O)c1C2=O)CC(O)(C(=O)CO)CC3OC1CC(NC(=O)OC2C=CCCCCC2)C(O)C(C)O1 (stereo not drawn) [TCO-doxorubicin] the “amount of activated Dox in heart, liver and gel relative to control treatment” value [1] was “reduced the amount of activated Dox in the heart and liver, yet increased the amount in the gel”.

In the case of CN[C@H](CC(C)C)C(=O)N[C@H]1C(=O)N[C@@H](CC(N)=O)C(=O)N[C@H]2C(=O)N[C@H]3C(=O)N[C@H](C(=O)N[C@H](C(=O)O)c4cc(O)cc(O)c4-c4cc3ccc4O)[C@H](O)c3ccc(c(Cl)c3)Oc3cc2cc(c3O[C@@H]2O[C@H](CO)[C@@H](O)[C@H](O)[C@H]2O[C@H]2C[C@](C)(NC(=O)OC3/C=C/CCCCC3)[C@H](O)[C@H](C)O2)Oc2ccc(cc2Cl)[C@H]1O (stereo partly drawn) [Vanco-R-TCO], the “in vitro activity lower than regular vancomycin” value ([2]; MIC with TAG, 2.0 vs. 0.5 nmoles/mL) is reported as 4 fold, the “bacterial load by culture of excised thigh muscle” value ([3]; 24 hours post-inoculation, Cy5-modified alginate TAG, 69 μmole/kg IV, mice) is reported as “equivalent efficacy to regular vancomycin” and the “luminescent bacteria by IVIS in vivo imaging” value (“luminescent bacteria by IVIS” below) ([3]; control experiment: (control) gel and Vanco-R-TCO) is reported as “luminescent bacteria were observed”. For the same compound, the “luminescent bacteria by IVIS” value [3, 5] was “undetectable”.

For CN[C@H](CC(C)C)C(=O)N[C@H]1C(=O)N[C@@H](CC(N)=O)C(=O)N[C@H]2C(=O)N[C@H]3C(=O)N[C@H](C(=O)N[C@H](C(=O)O)c4cc(O)cc(O)c4-c4cc3ccc4O)[C@H](O)c3ccc(c(Cl)c3)Oc3cc2cc(c3O[C@@H]2O[C@H](CO)[C@@H](O)[C@H](O)[C@H]2O[C@H]2C[C@](C)(N)[C@H](O)[C@H](C)O2)Oc2ccc(cc2Cl)[C@H]1O [vancomycin, reference compound], the “minimum inhibitory concentration (MIC)” value ([2]; mixed with alginate TAG, luminescence measured 16 hours after addition of the bacteria) was 0.5 µM (≈ 0.725 µg/mL) and the “luminescent bacteria by IVIS” value [3, 5] was “undetectable”.

In the case of COc1cccc2c1C(=O)c1c(O)c3c(c(O)c1C2=O)C[C@@](O)(C(=O)CO)C[C@@H]3O[C@H]1C[C@H](N)[C@H](O)[C@H](C)O1 [doxorubicin, reference compound], the body weight change [4] is reported as “drop in body weight” and the tumor response ([4]; longest tumor diameter by CT scans) is reported as “disease progression (tumor growth)”.

From US12296017B2, “Bioorthogonal compositions” (TAMBO, INC., priority 2017, dated 2025)
